# Screen size: about 48,000 compounds; about 120 (0.25%) were called active. Not shown: some 4% with an inconclusive outcome. The call rests on the fitted dose curve; in most records, active means well fitted activation curve with a large enough effect; inconclusive means small, poorly fitted or top-dose-only effect, or another doubt; inactive means no such curve, though single readings can be large or run the other way. The list shows a part of the results.
# Assay: Primary qHTS for Identification of Small Molecule Activators of Huntingtin-Antisense Promoter Activity; further: nearly all actives have a fitted effect of over 55% in size
# Details: HEK293 HTT-AS promoter firefly luciferase reporter (activity 0% = vehicle and -100% = no light), 24 h; series mostly up to 57.5 µM; activity change, positive = activation: at the top concentration
# Summary of the method: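 Quantitative HTS used concentration series of up to 57.5 uM final on HEK293 luciferase reporter cells, 24 h at 37 degrees C. Readout was Dual-Glo firefly luminescence.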
row,SMILES,"activity change, positive = activation"
1,Cc1ccc(C)c(N(C)C(=O)CCNC(=O)Cn2cnc3ccccc3c2=O)c1,inactive: -31.9%
2,CC(C)CC(=O)Nc1nnc(S(=O)(=O)N(C)c2ccc(Cl)cc2)s1,inactive: -25%
3,Cc1c(-c2ccc(Cl)cc2)c(=O)oc2c(CN3CCN(C)CC3)c(O)ccc12,inactive: -19.2%
4,O=C(CNC(=O)c1ccccc1Cl)OCc1cc(=O)n2nc(C3CC3)sc2n1,inactive: -3.45%
5,CC1CCc2c(sc3nc(-c4cc5ccccc5oc4=O)nc(Cl)c23)C1 (stereo not drawn),inactive: 0.64%
6,CCOC(=O)C1CCCN(C(=O)c2cc3c(Cl)nc4ccccc4c3s2)C1 (stereo not drawn),inactive: -84%
7,COc1cccc2sc(N(Cc3cccnc3)C(=O)C3CCCCC3)nc12,inactive: -27.7%
8,CCOc1ccc(C2c3c(-c4ccccc4O)n[nH]c3C(=O)N2Cc2cccnc2)cc1OC (stereo not drawn),inactive: 9.79%
9,O=S(=O)(c1cccc2cnccc12)N1CCCNCC1,inactive
10,CC(C)c1nn2c(=O)cc(COC(=O)c3cccc(NC(=O)c4ccccc4F)c3)nc2s1,inactive: 6.05%
11,CCC1Oc2ccc(C)cc2N(CC(=O)NCc2ccc(F)cc2)C1=O (stereo not drawn),inactive: -1.99%
12,O=C(Nc1cccc(Cl)c1)C(Cc1ccccc1)n1cccc1 (stereo not drawn),inactive: -26.4%
13,O=C1CC(c2ccccc2)Cc2[nH]c(=O)c(C(=O)Nc3ccc(F)cc3)cc21 (stereo not drawn),inactive: -6.57%
14,CCOc1ccc(CCNC(=O)CCCc2nnc3n(CCCOC)c(=O)c4sccc4n23)cc1,inactive: -1.54%
15,Cc1c(C(=O)N2CCCCCC2)c(S(=O)(=O)Nc2ccc(OC(F)(F)F)cc2)c(C)n1C,inactive: -17.6%
16,CCOC(=O)c1ccc(NC(=O)CSc2cc(-c3ccccc3)nc(C)n2)cc1,inactive: -27.5%
17,COc1ccc(N2C(=O)C(CC(=O)Nc3ccc(Cl)cc3)N(Cc3ccc4c(c3)OCO4)C2=O)cc1 (stereo not drawn),inactive: 0%
18,COc1ccc(NC(=O)CCc2nc3cccnc3n2-c2ccccc2)c(OC)c1,inactive: -15.1%
19,Cc1cccc2sc(N(Cc3cccnc3)C(=O)CCS(=O)(=O)c3ccccc3)nc12,inactive: 10.6%
20,CCOC(=O)c1c(NC(=O)c2cc(=O)c3cc(Cl)ccc3o2)sc(C)c1C,inactive: -2.51%
21,COc1cc(C(=O)Nc2ccccc2OCc2cc(=O)n3c(C)csc3n2)cc(OC)c1OC,inactive: -3.06%
22,Cc1ccc(C)c(N2CCN(C(=O)CN3CCSc4ccccc43)CC2)c1,inactive: -29.6%
23,Cc1cccc(-c2nc(SCc3cc(=O)c4cccc(F)c4[nH]3)n[nH]2)c1,inactive: -40.8%
24,CCN1CCN(C(c2ccc(C)cc2)c2sc3nc(-c4ccco4)nn3c2O)CC1 (stereo not drawn),inactive: -0.917%
25,CCOc1ccc(CCNC(=O)CSc2nnnn2-c2ccccc2Cl)cc1OCC,inactive: -25.2%

row,SMILES,"activity change, positive = activation"
1,COCCn1c(=N)c(C(=O)NCC2CCCO2)cc2c(=O)n3ccccc3nc21 (stereo not drawn),inactive: -0.92%
2,O=C(NCCS(=O)(=O)N1CCN(c2ccccc2F)CC1)c1ccccc1C(F)(F)F,inactive: -22%
3,COc1cccc(CNC(=O)Cn2c(=O)cc(C(F)(F)F)c3c(C)nn(C)c32)c1OC,inactive: -6.9%
4,CCOC(=O)c1ccc2c(c1)sc1nc(-c3ccc(OCC)cc3)cn12,inactive: -7.13%
5,Fc1ccc(F)c(Nc2c3c(nc4ccc(Cl)cc24)CCC3)c1,inactive: -51.8%
6,CCN(CC)CCCNC(=O)c1c2c(nc3ccccc13)C(=O)N(C1CCCCC1)C2,inactive: 3.45%
7,Cc1ccccc1OCC(=O)NCC(c1ccc(Cl)cc1)N1CCOCC1 (stereo not drawn),inactive: -30.1%
8,O=C(Nc1cccc2cccnc12)c1cccc2c(Br)cccc12,inactive: 0.385%
9,O=C1c2oc3ccccc3c(=O)c2C(c2ccccc2F)N1Cc1ccc2c(c1)OCO2 (stereo not drawn),inactive: -20.3%
10,CCN(CC)CCNC(=O)c1sc2nc(C)cc(C)c2c1-n1cccc1,inactive: -10.7%
11,COc1ccc(-n2c(Cc3ccccc3)nnc2SCc2nc(-c3ccccc3C)no2)cc1,inactive: -36.7%
12,Cc1ccc2onc(CNC(=O)N(C)Cc3ccccc3)c2c1,inactive: -0.563%
13,COc1ccc(NC(=O)Cn2ccn(Cc3ccccc3)c(=O)c2=O)cc1Cl,inactive: -26.9%
14,CCc1ccccc1NC(=O)Cn1c(C(=O)OC)cc2oc(C)cc21,inactive: 10.5%
15,CCOC(=O)c1ccc(NC(=O)c2cccc3c(=O)c4c([nH]c23)CCCC4)cc1,inactive: -8.48%
16,O=C1c2[nH]nc(-c3ccccc3O)c2C(c2cccc(Br)c2)N1Cc1ccncc1 (stereo not drawn),inactive: -24.2%
17,CN(C(=O)CSc1cn(CC(=O)N2CCCC2)c2ccccc12)c1ccccc1,inactive: -4.65%
18,COc1cccc(NC(=O)CSc2cc(C)[nH]c(=O)n2)c1,inactive: -2.9%
19,CCN(CC)c1nn2c(=O)c(C(=O)NCc3cccc(OC)c3OC)cnc2s1,inactive: -6.38%
20,CCCNC(C)(C)COC(=O)c1ccccc1,inactive: -10.1%
21,COCCCNC(=O)c1sc2nc(C)c(C(=O)Nc3ccc(Cl)cc3)c(-c3ccc(Br)cc3)c2c1N,inactive: -3.47%
22,CC1N=C2c3ccccc3N=C(SCC(=O)NCc3ccc(Cl)cc3)N2C1=O (stereo not drawn),inactive: 2.3%
23,COc1cccc(-c2n[nH]c3c2C(c2cccc(O)c2)N(C)C3=O)c1 (stereo not drawn),inactive: -8.62%
24,CCS(=O)(=O)N1CC(=O)N(c2cccc(C)c2C)C(C)(C(=O)NC2CCCCCC2)C1 (stereo not drawn),inactive: -4.5%
25,COc1ccc(CNC(=O)c2cnn(-c3ccc(OC)cc3)c2C2CCN(C(=O)OC(C)(C)C)CC2)cc1,inactive: -33%

row,SMILES,"activity change, positive = activation"
1,Cc1nc(SCC(=O)Nc2ccccc2Cl)cc(-c2ccccc2)n1,inactive: -12.1%
2,Cc1c2cnn(-c3ccccc3)c(=O)c2c(C)n1CC(=O)N1CCN(c2cccc(Cl)c2)CC1,inactive: -13%
3,CCOc1ccccc1NC(=O)c1c(NC(=O)Cc2ccccc2)sc2c1CCCC2,inactive: -8.67%
4,Cn1cc(C(=O)N2CCN(c3cccc(Cl)c3)CC2)c(=O)c2cc(S(=O)(=O)N3CCCC3)ccc21,inactive: -2.53%
5,COc1ccc(C)cc1NC(=O)CN1CCCN(S(=O)(=O)c2ccc(Br)cc2)CC1,inactive: -26.8%
6,COC(=O)c1cc(OC)c(OC)c(OC)c1NC(=O)c1cc(=O)n(C)c(=O)n1C,inactive: -11%
7,CCOc1ccc(NC(=O)CSc2ccc3ccccc3n2)cc1,inactive: 8.3%
8,COCCCNC(=O)CN1C(=O)COc2ccc(S(=O)(=O)N3CCOCC3)cc21,inactive: -16%
9,O=C(O)Cc1cccc2ccccc12,inactive
10,O=C(CCNS(=O)(=O)c1cccc2nonc12)Nc1ccc(F)cc1,inactive: -4.22%
11,COC(=O)c1cccc(Nc2c(-c3ccc(O)cc3)nc3nc[nH]n23)c1,inactive: -3.22%
12,COc1ccc(N2CCN(C(=O)c3cn(C4CCCCC4)c(=O)c4c3c3ccccc3n4C)CC2)cc1,inactive: -24.1%
13,O=C(Cn1ncc2c3ccccc3n(Cc3ccc(F)cc3)c2c1=O)NC1CCCCCC1,inactive: -12.6%
14,CCOC(=O)c1cc(-c2ccccc2)n(-c2cccc(C(=O)NC(C)CC)c2)c1C (stereo not drawn),inactive: -26.9%
15,Cc1ccc(N(C)S(=O)(=O)c2ccc(-c3cnc(C4CC4)o3)cc2)cc1,inactive: -36.1%
16,COc1ccc(Nc2nc(-c3ccccc3)c3cc(Br)ccc3n2)cc1,inactive: -10.8%
17,CCn1c(CN2CCCCC2)nc2cc(NC(=O)COc3cc(C)ccc3C(C)C)ccc21,inactive: -21.8%
18,CC(C)Oc1ccc(CNC(=O)c2ccc3c(c2)N(Cc2ccc(F)cc2)CCS3)cc1,inactive: -20.9%
19,Clc1ccccc1CNc1nc2ccccc2c2nc(-c3ccccc3)nn12,inactive: -22.4%
20,O=C(C1CCCCC1)N(Cc1cccnc1)c1nc2c(F)cccc2s1,inactive: -33.3%
21,Cc1ccc(C)c(NC(=O)N2CCN(c3nnc(C)c4c(C)n(-c5ccccc5)nc34)CC2)c1,inactive: -4.16%
22,COc1cc2c(cc1OC)C(COc1ccccc1OC)N(C(=O)c1ccc(S(=O)(=O)N3CCCC3)cc1)CC2 (stereo not drawn),inactive: -19%
23,Cc1cccc(OCC(=O)Nc2c(C(=O)N3CCN(c4ccccc4)CC3)oc3ccccc23)c1,inactive: -10.9%
24,COc1ccc(N2CCN(c3oc(-c4ccccc4C)nc3S(=O)(=O)c3ccccc3)CC2)cc1,inactive: -11.7%
25,COc1cc(NC(=O)Cn2nc(Cc3cccnc3)c3ccccc3c2=O)cc(OC)c1OC,inactive: -4.45%

row,SMILES,"activity change, positive = activation"
1,CCc1nc2ccccc2n1CCCCOc1ccc(Cl)cc1,inactive: -52%
2,CC(NCCc1ccc(O)cc1)C(O)c1ccc(O)cc1 (stereo not drawn),inactive: -10%
3,CCOc1ccccc1CNC(=O)CCCn1nc(C)c2sc3ccccc3c2c1=O,inactive: 1.76%
4,Cc1cccc(CSc2nc3ccncc3n2Cc2ccc(C(=O)O)cc2)c1,inactive: 4.31%
5,Cc1ccc(OCc2ccc(-c3nc(C#N)c(N4CCN(c5cccc(Cl)c5)CC4)o3)o2)cc1,inactive: -15.2%
6,Cc1nc2c([nH]1)c(=O)n(C)c(=O)n2Cc1ccco1,inactive: -8.92%
7,CC1=C(C(=O)Nc2cccc(Cl)c2)C2(CCCCCC2)OC1=O,inactive: -20.2%
8,COc1ccccc1NC(=O)Cn1c(=O)n(CCc2ccccc2)c(=O)c2sc3ccccc3c21,inactive: -3.98%
9,COc1cc(NC(=O)Cn2nc(C(F)(F)F)c3c2CCCC3)cc(OC)c1OC,inactive: -34.4%
10,Cc1cccc(C)c1NC(=O)N1CCC(C(N)=O)(N2CCCCC2)CC1,inactive: 1.35%
11,CCOC(=O)c1ccc(NC(=O)c2c(NCc3cccc(OC)c3)sc3c2CCC3)cc1,inactive: -0.0862%
12,CC(C)c1ccc(C(=O)Nc2ccc(-c3nc4ccccc4s3)c(Cl)c2)cc1,inactive: -16.6%
13,COc1cccc(-n2c(-c3ccco3)nc3c(cnn3-c3ccccc3C)c2=O)c1,inactive: -27.4%
14,Cn1cc(S(=O)(=O)N2CCCCCC2)cc1C(=O)Nc1ccccc1F,inactive: -21.6%
15,COc1ccc(-c2nc(Cn3c(SCc4cccc(F)c4)nc4cccnc43)c(C)o2)cc1,inactive: -34.1%
16,COc1cccc(C(=O)NCC(c2ccc(N(C)C)cc2)N2CCc3ccccc32)c1OC (stereo not drawn),inactive: -6.58%
17,COc1ccc2oc(-c3ccc(C)c(NC(=O)c4sc5ccccc5c4Cl)c3)nc2c1,inactive: -12.3%
18,CCN(CC)C(=O)c1sc2c(c1C)c(=O)n(-c1ccc(OC)cc1OC)c(=O)n2Cc1cc(C)ccc1C,inactive: -30.5%
19,COc1cccc(-c2nn(C)c3sc(C(=O)NCc4ccc(C)cc4)cc23)c1,inactive: 7.15%
20,CC(=O)N1c2ccc(S(=O)(=O)NCc3ccc(Cl)cc3)cc2CC1C (stereo not drawn),inactive: -36.7%
21,CC(=O)Nc1ccccc1OCc1cc(=O)n2c(C)csc2n1,inactive: -4.09%
22,CCOC(=O)c1cc(S(=O)(=O)NCc2ccc(F)cc2)[nH]n1,inactive: -12.2%
23,Cc1ccc(-c2nc(C)c(CCNC(=O)C(=O)Nc3ccc(C)c(Cl)c3)s2)cc1,inactive: 9.35%

# From PubChem BioAssay AID1508624 (National Center for Advancing Translational Sciences (NCATS), 2021)
